{"source": "paper PMC7819943", "about": "“Rice protein-binding microarrays: a tool to detect cis-acting elements near promoter regions in rice”", "note": "The list shows a part of the results.", "data": [{"target": "T1, OsWOX13 (Oryza sativa, UniProt Q5QMM3 1-267)", "T1 sequence": "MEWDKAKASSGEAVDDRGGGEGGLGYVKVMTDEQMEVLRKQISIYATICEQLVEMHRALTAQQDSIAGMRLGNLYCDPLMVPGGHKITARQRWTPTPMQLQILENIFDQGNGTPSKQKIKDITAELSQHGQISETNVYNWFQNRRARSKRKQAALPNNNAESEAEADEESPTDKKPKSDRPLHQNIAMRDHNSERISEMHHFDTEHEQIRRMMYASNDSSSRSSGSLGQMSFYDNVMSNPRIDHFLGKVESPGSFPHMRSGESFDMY", "test": "protein-binding microarray (RPBM); PBS, 2% BSA, 51.3 ng/ul salmon testes DNA, 50 uM zinc acetate, 200 nM TF, 25 C, 1 h; high values mean tight binding", "conditions": "protein: recombinant; tags: N-terminal polyhistidine and DsRed monomer fusion (pET32a); label: CyDye5-dUTP incorporated in the synthesized complementary strand; 3' TTTTT single-stranded linker to array surface; dsDNA, one strand shown", "method_in_brief": "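Using Ni–NTA, transcription factors fused N-terminally to polyhistidine and DsRed were purified after expression in E. coli BL21-CodonPlus. These were incubated at 200 nM with a blocked, double-stranded custom Agilent array for 1 h at 25 °C in a buffer containing 50 µM zinc acetate, and the array was washed. The binding signal is per-feature fluorescence intensity (arbitrary units) on an Axon 4000B scanner.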", "values": [{"sequence": "ACGCCGATGCATGATGATTGCTGTAAATCATATACACTTCCGGAGTCACCTAGTGCAG", "binding signal": "8580 fluorescence intensity (a.u.)"}, {"sequence": "CGACAAGTTAATTTGGCAGACAGCTGTGATCTTGGCTCTCCGGAGTCACCTAGTGCAG", "binding signal": "8760 fluorescence intensity (a.u.)"}, {"sequence": "CTGATGATTAGATTTATCATGCTTCCGCGCTTCAAAAGGGCGGAGTCACCTAGTGCAG", "binding signal": "53400 fluorescence intensity (a.u.)"}, {"sequence": "ATTATATTAATTTTATGAAAACAGTATCGGTAATGACCGGCGGAGTCACCTAGTGCAG", "binding signal": "6110 fluorescence intensity (a.u.)"}, {"sequence": "TGCCACGGTTAGTTAGTTGATTAGTTATCTGCATGTTTACCGGAGTCACCTAGTGCAG", "binding signal": "4580 fluorescence intensity (a.u.)"}, {"sequence": "TTCCATAATAATTGACGTTTTGAACAAGGTTGATGTCAAACGGAGTCACCTAGTGCAG", "binding signal": "22700 fluorescence intensity (a.u.)"}, {"sequence": "ACGTAATTAATCCGTCATTAGTAAGTGTTTACTTAGCACCCGGAGTCACCTAGTGCAG", "binding signal": "35000 fluorescence intensity (a.u.)"}, {"sequence": "ACCAACTTTATATATAATTTTGATAGCAATGTCTAACATACGGAGTCACCTAGTGCAG", "binding signal": "4580 fluorescence intensity (a.u.)"}, {"sequence": "CTTGTGATTTGTTCATGACACAACTTGACACGGTTTGGGTCGGAGTCACCTAGTGCAG", "binding signal": "50000 fluorescence intensity (a.u.)"}, {"sequence": "TCTAAATTTAATTAAAATCGACCGCGGCTCAATCAAAAGTCGGAGTCACCTAGTGCAG", "binding signal": "22100 fluorescence intensity (a.u.)"}, {"sequence": "AGTTGATTGGGCCTCCTTTTCGTGTAACATATGGGCCTCCCGGAGTCACCTAGTGCAG", "binding signal": "43300 fluorescence intensity (a.u.)"}, {"sequence": "TCGGCAAAATTAGCTCATGATGTACATATCAAGTTAGCATCGGAGTCACCTAGTGCAG", "binding signal": "3930 fluorescence intensity (a.u.)"}, {"sequence": "TTTTGATATGATTGATGCCATGCTCTGAACAACAATCACCCGGAGTCACCTAGTGCAG", "binding signal": "49200 fluorescence intensity (a.u.)"}, {"sequence": "AACTAATAGCTCCAAATTATCTATAGCCAATGTAATAGCTCGGAGTCACCTAGTGCAG", "binding signal": "8780 fluorescence intensity (a.u.)"}, {"sequence": "TAATAATAATATTATTTATTTCATAATTTCATGTACACATCGGAGTCACCTAGTGCAG", "binding signal": "4050 fluorescence intensity (a.u.)"}, {"sequence": "TTAAATTGTATTGGTTTCAAATATTATATTTAGTCTAAACCGGAGTCACCTAGTGCAG", "binding signal": "4610 fluorescence intensity (a.u.)"}, {"sequence": "TGATGTTTCATCACTAATTTGTATTTGATAACCTGCATATCGGAGTCACCTAGTGCAG", "binding signal": "5260 fluorescence intensity (a.u.)"}, {"sequence": "CTGTGCCAATCAGGACACCCAAATTGCCTGTCAATGCACACGGAGTCACCTAGTGCAG", "binding signal": "22900 fluorescence intensity (a.u.)"}, {"sequence": "TGGATTTGTATGTCTTAATTGAAGTTAGGCTATAAATTTGCGGAGTCACCTAGTGCAG", "binding signal": "10300 fluorescence intensity (a.u.)"}, {"sequence": "CTATAATAATTTATGATGCCCACGTATATAGTGTATTTGGCGGAGTCACCTAGTGCAG", "binding signal": "13100 fluorescence intensity (a.u.)"}, {"sequence": "ATCAAATTATCAGACAGACAGCTTTCACACTAGGTGAGCACGGAGTCACCTAGTGCAG", "binding signal": "29000 fluorescence intensity (a.u.)"}, {"sequence": "CGAATAATGTATTTTCCTGATTTATCTCGACCATATTCTGCGGAGTCACCTAGTGCAG", "binding signal": "5620 fluorescence intensity (a.u.)"}, {"sequence": "TATGTCTACTAATTGTCATCAGCTAGTTAATCCGGATTTACGGAGTCACCTAGTGCAG", "binding signal": "9090 fluorescence intensity (a.u.)"}, {"sequence": "GGCATCAAAATAAACAGACGCTGTATGTCAAATTCACATTCGGAGTCACCTAGTGCAG", "binding signal": "3600 fluorescence intensity (a.u.)"}, {"sequence": "ATCCAATCAACCACCAAGTCCACTACTATGATTCTTGGGCCGGAGTCACCTAGTGCAG", "binding signal": "18100 fluorescence intensity (a.u.)"}, {"sequence": "CACCAATAATTAAGCTGAGCGCAAGTCTCTCGCTTACTAGCGGAGTCACCTAGTGCAG", "binding signal": "4900 fluorescence intensity (a.u.)"}, {"sequence": "GATAATAACTGTTGGGATTGCTTAGAGGAAACTTGGTAGACGGAGTCACCTAGTGCAG", "binding signal": "8750 fluorescence intensity (a.u.)"}, {"sequence": "AACTTTGATTCTGTACAGTCAATTATGTCACAAACTAAAGCGGAGTCACCTAGTGCAG", "binding signal": "9370 fluorescence intensity (a.u.)"}, {"sequence": "ATAACGGGAATATAAACTATAAATTGATTGCTTGTACTATCGGAGTCACCTAGTGCAG", "binding signal": "29900 fluorescence intensity (a.u.)"}, {"sequence": "ATCGTTTTCTGTCCGCTTTGATTGTTATTGACCTAGCCACCGGAGTCACCTAGTGCAG", "binding signal": "7160 fluorescence intensity (a.u.)"}, {"sequence": "TCGATATGATTGGGACGGCACAACCGTACATTGAAATTTTCGGAGTCACCTAGTGCAG", "binding signal": "25700 fluorescence intensity (a.u.)"}, {"sequence": "AGGTGATTTGCATCGATCTTCGAACATGGGGAAGACGCTACGGAGTCACCTAGTGCAG", "binding signal": "23000 fluorescence intensity (a.u.)"}, {"sequence": "ATGAATTGGCTATTAGATCGGCTATAGATAAATTGGAGCTCGGAGTCACCTAGTGCAG", "binding signal": "9140 fluorescence intensity (a.u.)"}, {"sequence": "CCTAATTATGAAAAGGTATAAATGCGTGATTAGAACTATACGGAGTCACCTAGTGCAG", "binding signal": "16500 fluorescence intensity (a.u.)"}, {"sequence": "CACAGCAAATTGATCTAAACAGGCCCTTATTTCACTTGCACGGAGTCACCTAGTGCAG", "binding signal": "38300 fluorescence intensity (a.u.)"}, {"sequence": "ATTTAACATTCAATTCATACCAATAGACTTCTAGTCGATACGGAGTCACCTAGTGCAG", "binding signal": "4550 fluorescence intensity (a.u.)"}, {"sequence": "GTATTGATTCTAGTTTGATTGCTACAGGAATAACTAATGACGGAGTCACCTAGTGCAG", "binding signal": "16700 fluorescence intensity (a.u.)"}, {"sequence": "GATGATTGATGGGAATATAGAGATCCCATGTTTTCCAGCTCGGAGTCACCTAGTGCAG", "binding signal": "61000 fluorescence intensity (a.u.)"}, {"sequence": "AGTGTTGATTAAAATTTCTGATTAATTACTCTACTGTTTTCGGAGTCACCTAGTGCAG", "binding signal": "45900 fluorescence intensity (a.u.)"}, {"sequence": "ACAGATTGGCCAAACTTTTGGATAGGATTAATAGAAAGTCCGGAGTCACCTAGTGCAG", "binding signal": "27100 fluorescence intensity (a.u.)"}, {"sequence": "GTAGCAATCAAATATGGGCCGGTCAATTGTTCGCGGTAGACGGAGTCACCTAGTGCAG", "binding signal": "4130 fluorescence intensity (a.u.)"}, {"sequence": "CTTAATTAATCTTTGCCCAGAACGATTAGGTCCTGGAAACCGGAGTCACCTAGTGCAG", "binding signal": "20700 fluorescence intensity (a.u.)"}]}]}
